Reference: the RNAGym collection of RNA variant scans (doi:10.7554/elife.90254)
The source gives no read counts; variants with many changes may rest on few reads.

B1: LINE1-full (parent)
chain: UACGUAGGUGGUUUUCCCCUGAUAGUGCUAAGGGGGCCUGGAAGUUUGGACUGGGCAGAGCUCAACACAGCGUGGCAAAGUGGCUGUGGCUAGACUGCCUCUCUGGAUUCCUCGUCACUCAGCAGGGCAUCUCUGAGAGAAAUGCC

Variants of: B1
Test: self-cleavage, relative activity (ratio to wild type); higher = more cleavage; in vitro, sequencing; the parent is a self-cleaving ribozyme

Variant	self-cleavage
U15A C38U G58A A141G	0.07
U14C U46C A64G U87C A140G	0
U15C A50G G93U	0.05
U14C U47C U87A	0.17
U14C U47C U87C	0.8
U15C A64G A67G	0
U15C A30G U52A	0.76
U15A A67G U100C	0
U14C U47C U85C C116A	0.52
U15C A42U U52A	1.79
U15C A65G U119A	0
U14C U15C U115A C120U	1.34
U14C U52A U100C U102A U134C A136U A140G	2.63
U15A A31U G144A	0.93
U14C G88C A136G	0.13
U15A A59G C95U U109A	0.09
U14C G106C A141G	1.35
U14C C118U A138G	0.89
U14C G44A A141G U143A	0.83
U14C U29C A43G C99U A141G	1.31
U14C U87C A124G	0.19
U14C U15C U52C	1.9
U15C A31G G34A A57U U73C U100C A121U G135A	0.52
U15C A59U U73A	0.75

Variant	self-cleavage
U15A U47C A136U	1.84
U15C A31G U104A	1.12
U15C A50U U85C A129U	0.12
U15A U108A C111A	1.58
U14C U91C A107G G126A	0.48
U15A U23A A42G A129G A138G	1.53
U15A G72A A107G	1.14
U14C U87C C123A	0.31
U15A C16U A31U A124G	0.25
U14C C113U C116U	1.59
U14C U87A A121G	0.22
U15C A42G G89A	0.05
U15A G36A G60A U130C	0.07
U15A U47A G97A	0.07
U14C U20G U62A A107G	0.08
U14C U47C A77G U112C	1.41
U15A A69U G127C U132C	0.24
U14C U23C U39C G58A A141G	0.07
U14C G32A U39G U112A	1.71
U15A A64U U87C	0.11
U15A A69U A140G	0.06
U14C U52A A136U	1.5
U14C U26C C37U U104A A136G	1.94
U14C U45C G54A A78G	0.19

Variant	self-cleavage
U14G U15C U39C U134G	0.37
U15C A50U A65C U81A U104C U130C	0
U14C G105A A121G	1.65
U14C U45C U46C	1.4
U14G U91C U115C	1.15
U14C U29A U45C	1.02
U15C A43G C56U A124G A141G	0.24
U14C C90U A124G A142G	0.24
U14C U52C U62C U112C U143C	0
U15C A43U A124C	1.53
U15A U52C C118U	0.78
U14C G53U U132C U143A C146U	1.65
U14C U23C U81G A136G	2.87
U14G U108C G135A	0.65
U14C U15C A30G U115A	1.11
U14C U46C A57C U91C	0
U14C U85C A138G	0.44
U15C A31G A124G A136G	1.62
U14C U29C A121G	0.77
U14C U96C U108C	0.28
U15A A69U U132C	0.14
U14C U20A A121G A141G	0.68
U15C A65G G82A A117U	0.04
U14C U52A U100A	0.76

Variant	self-cleavage
U15A C16A A78G A140G	0.27
U14G A30G A64U C99U C146U	0.39
U15A U73C U91A U115C	0
U14G U46A U102C	0.68
U14C G40A A42G C51U G114A	1.74
U14C G33U A50G C51A U100C A129C	1.41
U15A U96C U108C	0.31
U15C A22G U62C	0.34
U15C A65U C103G	0.11
U15C A24U U46C U96C G135A	0.56
U14C U47A U73C U100C	0.33
U15A A59G A141G	0.14
U15C A42G U46A U104C A140G	1.31
U15A A64U U130C	0.57
U14C U15A U115C A136G	1.35
U15A U26A A78U A94G U115A	0.78
U15C A64U U100C U134A	0.77
U14G U52C A129G	1.67
U14C U45G A142G	1.31
U15A U100C G106A A124G U130C	1.58
U14C U45C U112A G114A U143C	1.23
U15A U52C A140G	1.13
U15C A50G U85C A136G	0.84
U15C A50G U100C A117U U132C	1.53

Variant	self-cleavage
U15C A30G G44U A92U	0.93
U14C U47C U73A C116U	1.2
U15A U115C A141G	1.13
U15A A42G A43G A67U U109A	0.25
U14C U47C A50G	1.84
U14C U46G U62C A78G U85C	0
U15A A43G A94G A121C G122U	0
U14C U91G U108C	0
U14C U29G U132A	1.6
U15A A78U A136G U143C	1.95
U15A A43G G58U	0.04
U14C U20C U119A A129U	1.44
U15A A136G A138G	1.02
U15C A59G A77G	0.18
U15A C38A U62C A136U	0.03
U14C U87C G137A	0.13
U15A U26A U46C	1.79
U15C A30G U39C G80A U130C	1.53
U15A A57U A117G	0
U14C U20G A129G U134C	1.02
U14C U26G C71A U115C	0.24
U14C U26C U85A A94G U119C	0
U14C U52G A136U	1.31
U15C A42G U62C U112A A142G	0

Variant	self-cleavage
U14C U62G A92G G97A	0.23
U15C A42U U52C G74A G127C	1.7
U14C U47A A78G	1.5
U14C G32A U62C U100C	0.16
U14G U46A U108C	0.44
U15A A24U G32A A64G	0.34
U15A U20G A42G	1.11
U15C A64G U81A	0.5
U14G U29C A64C	0.59
U15C A57U C99U U112C A136U	0
U15A A43G A59U G127U	0.34
U14C U47C U85C	0.48
U14C U102C A136G	0
U15C A59U U73A A92G	0.05
U14C G33U U96C	0.22
U14C U134G U143C	2
U15C A22G U96A U104C A141U	0.23
U15C A50G U132C	1.88
U15A U73G U143C	0.91
U15C A57C G72A U115C	0.04
U14C U26A C76A A138G	0.57
U14C U45A A64G U96C	0
U14C U45C U85C C101A U108C	0.42
U15A U52C C146U	1.74

Variant	self-cleavage
U15A U62C U102C A136G	0
U14C U112C U134C	1.31
U14C U46C U100C U104C	1.45
U14C U23C U29C A43G	1.6
U15A A22G U62C A64G	0
U14C U87A A94G U104C	0
U15C A24G A142G	0
U14C G32A A43G	1.39
U14C U104C A124G	0.88
U14G A24G A69U	0
U15A U26C G35U U46A C76U U96C G139A	0.13
U15C A57U A59U U73C A140G	0.03
U15C A64G A69G	0
U14C G25C A42G A64U A65U A78G U96C C113U U115C	0.05
U14C U109C A140G	0.36
U14C U100C A140G	1.17
U14C U26G G27C U62G C84G A121U A140G	0
U14G A78G A107G	1.09
U14C G32C U47C A117G A142G	0.54
U15A A43G U102C	0.39
U15C A43G U91C A138G	0
U15A C99A A138G A140G	0.08
U14C U85A U108C U130C U134A	0.12
